The list shows a part of the results. Many values rest on one well or one pass, so single values are uncertain.
Columns and labels:
Experiment in all cases: cell count relative to DMSO control; melanoma cells; higher = more viable cells
Conditions in all cases: library dose: standard library concentration; 72 h
G361 = system: G361
IPC-298 = system: IPC-298
IST-MEL1 = system: IST-MEL1
LB2518-MEL = system: LB2518-MEL
LOXIMVI = system: LOXIMVI
MEL-HO = system: MEL-HO
MZ2-MEL = system: MZ2-MEL
MeWo = system: MeWo
RPMI7951 = system: RPMI7951
RVH-421 = system: RVH-421
SkMel28 = system: SkMel28
SkMel2 = system: SkMel2
SkMel30 = system: SkMel30
SkMel5 = system: SkMel5
UACC257 = system: UACC257
UACC62 = system: UACC62
WM115 = system: WM115
WM1716 = system: WM1716
WM1745 = system: WM1745
WM3526 = system: WM3526
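Note: cells treated in 1,536-well plates, then fixed and DAPI-stained, with nuclei counted from automated high-throughput microscope images.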

Row | SMILES | cell count (G361) [%] | cell count (IPC-298) [%] | cell count (IST-MEL1) [%] | cell count (LB2518-MEL) [%] | cell count (LOXIMVI) [%] | cell count (MEL-HO) [%] | cell count (MZ2-MEL) [%] | cell count (MeWo) [%] | cell count (RPMI7951) [%] | cell count (RVH-421) [%] | cell count (SkMel28) [%] | cell count (SkMel2) [%] | cell count (SkMel30) [%] | cell count (SkMel5) [%] | cell count (UACC257) [%] | cell count (UACC62) [%] | cell count (WM115) [%] | cell count (WM1716) [%] | cell count (WM1745) [%] | cell count (WM3526) [%]
1 | Cc1cc(Nc2cc(N3CCN(C)CC3)nc(Sc3ccc(NC(=O)C4CC4)cc3)n2)n[nH]1 [Tozasertib] + C=CCNC1=C2C[C@@H](C)C[C@H](OC)[C@H](O)[C@@H](C)/C=C(\C)[C@H](OC(N)=O)[C@@H](OC)/C=C\C=C(/C)C(=O)NC(=CC1=O)C2=O [Tanespimycin] (first compound 0.03 µM, partner dose 0.01 µM) | 64.8 | 75.6 | 77.1 | 78.1 | 114 | 70.8 | 63.8 | 58.7 | 26.9 | 84.7 | 46.6 | 71.3 | 82 | 78.4 | 82.4 | 67 | 28.4 | 65.5 | 55.7 | 82
2 | CC[C@]1(O)C[C@H]2CN(CCc3c([nH]c4ccccc34)[C@@](C(=O)OC)(c3cc4c(cc3OC)N(C=O)[C@H]3[C@@](O)(C(=O)OC)[C@H](OC(C)=O)[C@]5(CC)C=CCN6CC[C@]43[C@@H]65)C2)C1 [vincristine] + Cn1cncc1[C@@](N)(c1ccc(Cl)cc1)c1ccc2c(c1)c(-c1cccc(Cl)c1)cc(=O)n2C [tipifarnib] (first compound 0.0005 µM, partner dose 0.05 µM) | 56 | 105 | 68.7 | 55.3 | 55 | 82 | 54 | 37 | 41.2 | 60.6 | 46 | 50.5 | 77.7 | 45.7 | 63.3 | 69.8 | 40.4 | 35.8 | 93 | 59.4
3 | Cc1cc(Nc2cc(N3CCN(C)CC3)nc(Sc3ccc(NC(=O)C4CC4)cc3)n2)n[nH]1 [Tozasertib] + Cn1cncc1[C@@](N)(c1ccc(Cl)cc1)c1ccc2c(c1)c(-c1cccc(Cl)c1)cc(=O)n2C [tipifarnib] (first compound 0.03 µM, partner dose 0.05 µM) | 82.1 | 117 | 86.3 | 88.9 | 88.2 | 106 | 109 | 85.5 | 73.5 | 106 | 86 | 79 | 154 | 74.6 | 87.9 | 68.2 | 53.8 | 73.4 | 66.4 | 83.8
4 | CC[C@]1(O)C[C@H]2CN(CCc3c([nH]c4ccccc34)[C@@](C(=O)OC)(c3cc4c(cc3OC)N(C=O)[C@H]3[C@@](O)(C(=O)OC)[C@H](OC(C)=O)[C@]5(CC)C=CCN6CC[C@]43[C@@H]65)C2)C1 [vincristine] + Nc1nc(F)nc2c1ncn2[C@@H]1O[C@H](CO)[C@@H](O)[C@@H]1O [fludarabine] (first compound 0.0005 µM, partner dose 1 µM) | 89.2 | 76.5 | 77 | 99 | 84.6 | 86.3 | 96.1 | 93.5 | 48.4 | 86.9 | 2.42 | 2.09 | 10.6 | 25.8 | 31.1 | 51.6 | 80.9 | 58.1 | 88.3 | 19.3
5 | Cc1cc(Nc2cc(N3CCN(C)CC3)nc(Sc3ccc(NC(=O)C4CC4)cc3)n2)n[nH]1 [Tozasertib] + Cc1ccc(Nc2nccc(N(C)c3ccc4c(C)n(C)nc4c3)n2)cc1S(N)(=O)=O [Pazopanib] (first compound 0.03 µM, partner dose 2 µM) | 77 | 62.2 | 94 | 70.8 | 78.6 | 90.7 | 60.2 | 89.3 | 79.6 | 156 | 37.3 | 102 | 95.1 | 68.5 | 80.4 | 78.5 | 54 | 73.2 | 72.2 | 76.8
6 | N#CC[C@H](C1CCCC1)n1cc(-c2ncnc3[nH]ccc23)cn1 [ruxolitinib] + Nc1ncn([C@H]2C[C@H](O)[C@@H](CO)O2)c(=O)n1 [decitabine] (first compound 5 µM, partner dose 0.5 µM) | 73.7 | 60.6 | 61.8 | 71.8 | 85.1 | 62 | 70.3 | 60 | 67.2 | 74.7 | 82.1 | 86.2 | 98.3 | 68.5 | 104 | 63.5 | 80.7 | 62.4 | 59.5 | 104
7 | Cc1cc(Nc2cc(N3CCN(C)CC3)nc(Sc3ccc(NC(=O)C4CC4)cc3)n2)n[nH]1 [Tozasertib] + CCCS(=O)(=O)Nc1ccc(F)c(C(=O)c2c[nH]c3ncc(Cl)cc23)c1F [PLX4720] (first compound 0.03 µM, partner dose 0.4 µM) | 48.1 | 64.6 | 73.8 | 66.7 | 93.7 | 79.2 | 55.7 | 68.2 | 71.2 | 67.2 | 40.7 | 77.8 | 83.8 | 49.2 | 89.4 | 35.4 | 41.8 | 54.5 | 60.4 | 40.9
8 | CC[C@]1(O)C[C@H]2CN(CCc3c([nH]c4ccccc34)[C@@](C(=O)OC)(c3cc4c(cc3OC)N(C=O)[C@H]3[C@@](O)(C(=O)OC)[C@H](OC(C)=O)[C@]5(CC)C=CCN6CC[C@]43[C@@H]65)C2)C1 [vincristine] + CO[C@@H]1[C@H](N(C)C(=O)c2ccccc2)C[C@H]2O[C@]1(C)n1c3ccccc3c3c4c(c5c6ccccc6n2c5c31)C(=O)NC4 [Midostaurin] (first compound 0.0005 µM, partner dose 0.4 µM) | 54.9 | 74.7 | 75.6 | 65.5 | 51.9 | 83.6 | 79.6 | 69.6 | 46.3 | 65.2 | 59 | 70.1 | 49.8 | 59.8 | 69.1 | 68.2 | 46.6 | 39.2 | 45.4 | 44.3
9 | Cc1cc(Nc2cc(N3CCN(C)CC3)nc(Sc3ccc(NC(=O)C4CC4)cc3)n2)n[nH]1 [Tozasertib] + Clc1ccc(Nc2nnc(Cc3ccncc3)c3ccccc23)cc1 [vatalanib] (first compound 0.03 µM, partner dose 10 µM) | 86.2 | 84.4 | 78.1 | 97.1 | 90.7 | 68.2 | 73.5 | 83.5 | 72.3 | 95.6 | 104 | 118 | 121 | 89.4 | 80 | 86.3 | 51.7 | 79 | 63.5 | 94.6
10 | N#CC[C@H](C1CCCC1)n1cc(-c2ncnc3[nH]ccc23)cn1 [ruxolitinib] + Cn1c(=O)n(-c2ccc(C(C)(C)C#N)cc2)c2c3cc(-c4cnc5ccccc5c4)ccc3ncc21 [NVP-BEZ235] (first compound 5 µM, partner dose 0.02 µM) | 42.7 | 81.4 | 70.3 | 66.9 | 76.5 | 51.1 | 74.6 | 59 | 57.7 | 59.7 | 48.8 | 64.2 | 72.2 | 65.4 | 101 | 78.9 | 64.4 | 68.8 | 89.5 | 68.3
11 | CC[C@]1(O)C[C@H]2CN(CCc3c([nH]c4ccccc34)[C@@](C(=O)OC)(c3cc4c(cc3OC)N(C=O)[C@H]3[C@@](O)(C(=O)OC)[C@H](OC(C)=O)[C@]5(CC)C=CCN6CC[C@]43[C@@H]65)C2)C1 [vincristine] + COc1cc2c(Oc3ccc4[nH]c(C)cc4c3F)ncnc2cc1OCCCN1CCCC1 [cediranib] (first compound 0.0005 µM, partner dose 2 µM) | 79.4 | 122 | 99.7 | 82.7 | 74.5 | 111 | 107 | 62.4 | 66 | 60.1 | 87.7 | 89.3 | 69.5 | 52.9 | 79.8 | 57.4 | 35.1 | 34.2 | 84.8 | 57.9
12 | CC[C@]1(O)C[C@H]2CN(CCc3c([nH]c4ccccc34)[C@@](C(=O)OC)(c3cc4c(cc3OC)N(C=O)[C@H]3[C@@](O)(C(=O)OC)[C@H](OC(C)=O)[C@]5(CC)C=CCN6CC[C@]43[C@@H]65)C2)C1 [vincristine] + CN(NC(=O)CC(=O)NN(C)C(=S)c1ccccc1)C(=S)c1ccccc1 [STA4783] (first compound 0.0005 µM, partner dose 0.03 µM) | 54.4 | 85.4 | 30.4 | 21.4 | 57.9 | 85.8 | 105 | 14.3 | 42.4 | 56.9 | 25.1 | 53.5 | 45.2 | 38.7 | 91 | 44.7 | 21.1 | 27.9 | 30.7 | 44.4
13 | Cc1cc(Nc2cc(N3CCN(C)CC3)nc(Sc3ccc(NC(=O)C4CC4)cc3)n2)n[nH]1 [Tozasertib] + CC(C)C[C@H](NC(=O)[C@H](Cc1ccccc1)NC(=O)c1cnccn1)B(O)O [Bortezomib] (first compound 0.03 µM, partner dose 0.005 µM) | 1.13 | 6.51 | 14.7 | 1.01 | 31 | 30.8 | 3.44 | 14.3 | 2.44 | 5.01 | 19.3 | 32.1 | 26.9 | 21.3 | 82.3 | 59.1 | 15.6 | 14.8 | 14.4 | 18.4
14 | Cc1cc(Nc2cc(N3CCN(C)CC3)nc(Sc3ccc(NC(=O)C4CC4)cc3)n2)n[nH]1 [Tozasertib] + CNC(=O)c1cc(Oc2ccc(NC(=O)Nc3ccc(Cl)c(C(F)(F)F)c3)cc2)ccn1 [sorafenib] (first compound 0.03 µM, partner dose 2 µM) | 78.8 | 79.5 | 109 | 61.4 | 111 | 92.8 | 66.5 | 87.5 | 68 | 97.4 | 79.5 | 92.7 | 85.7 | 83 | 100 | 60.9 | 77.3 | 89.2 | 58.3 | 80

From the supplement of paper PMC4604168 (melanoma cell lines)
